Experiments:
[1] = target: T1, CD98hc on the surface of human tumor cell lines (human, UniProt P08195 1-529, On cells it is disulfide-linked to an SLC7-family light chain that the patent does not specify. That chain is not given.); assay: flow cytometry saturation curve on A-549 cells, Lineweaver-Burk method
T1 construct: also called 4F2hc; 4F2 antigen
T1 sequence: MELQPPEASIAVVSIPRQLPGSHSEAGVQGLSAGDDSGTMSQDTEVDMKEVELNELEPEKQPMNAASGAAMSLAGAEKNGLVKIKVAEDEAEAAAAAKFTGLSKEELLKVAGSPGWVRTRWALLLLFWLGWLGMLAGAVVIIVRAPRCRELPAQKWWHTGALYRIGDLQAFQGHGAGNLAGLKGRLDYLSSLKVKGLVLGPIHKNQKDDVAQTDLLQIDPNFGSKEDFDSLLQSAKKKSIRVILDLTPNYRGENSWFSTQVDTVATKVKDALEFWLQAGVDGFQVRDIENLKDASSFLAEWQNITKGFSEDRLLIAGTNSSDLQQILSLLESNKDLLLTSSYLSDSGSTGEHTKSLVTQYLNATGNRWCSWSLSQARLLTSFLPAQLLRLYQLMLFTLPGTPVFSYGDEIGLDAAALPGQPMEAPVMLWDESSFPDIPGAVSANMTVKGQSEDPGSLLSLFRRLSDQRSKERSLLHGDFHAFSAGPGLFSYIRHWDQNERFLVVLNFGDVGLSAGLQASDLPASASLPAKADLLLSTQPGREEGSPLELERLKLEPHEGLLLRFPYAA

[2] = target: T1, CD98hc on the surface of human tumor …; assay: flow cytometry on A-549 cells, 5 µg/mL scFv, 4° C., 120 min
[3] = target: T1, CD98hc on the surface of human tumor …; assay: flow cytometry, 1 µg/mL scFv; average of prostate cell lines DU-145, PC-3, LNCaP (± SEM)
[4] = target: T1, CD98hc on the surface of human tumor …; assay: flow cytometry, 1 µg/mL scFv; average of colon cell lines HT-29, WiDr, SW-480 (± SEM)
[5] = target: T1, CD98hc on the surface of human tumor …; assay: flow cytometry on A-549 cells, 5 µg/mL scFv, 37° C., 60 min (surface-bound scFv left after internalization)
[6] = target: T1, CD98hc on the surface of human tumor …; assay: flow cytometry, 1 µg/mL scFv; average of breast cell lines MDA-MB-435S, MDA-MB231, MCF-7 (± SEM)
[7] = target: T1, CD98hc on the surface of human tumor …; assay: flow cytometry, 1 µg/mL scFv; average of stomach cell lines AGS, NCI-N-87, Kato III (± SEM)
[8] = target: T1, CD98hc on the surface of human tumor …; assay: flow cytometry on A-549 cells, 5 µg/mL scFv, 37° C., 120 min (surface-bound scFv left after internalization)
[9] = target: T1, CD98hc on the surface of human tumor …; assay: flow cytometry, 1 µg/mL scFv; average of pancreas cell lines PANC-1, BxPC-3, MIA PaCa-2 (± SEM)
[10] = target: T1, CD98hc on the surface of human tumor …; assay: flow cytometry, 1 µg/mL scFv; average of ovarian cell lines NIH-OVCAR3, SKOV-3, TOV-112D (± SEM)
[11] = target: T1, CD98hc on the surface of human tumor …; assay: flow cytometry, 1 µg/mL scFv; average of cervix cell lines ME-180, C-4I, C-33A (± SEM)
[12] = target: T1, CD98hc on the surface of human tumor …; assay: flow cytometry, 1 µg/mL scFv; average of lung cell lines A549, NCI-H460, NCI-H69 (± SEM)
[13] = target: T1, CD98hc on the surface of human tumor …; assay: flow cytometry, 1 µg/mL scFv; average of liver cell lines SK-Hep1, HepG2 (± SEM)

B1: VB2-169 (scFv)
scFv: QVQLVESGGGLVKPGGSLRLSCAASGFTFSDYYMSWIRQAPGKGLEWVSYISSSGSTIYYADSVKGRFTISRDNAKNSLYLQMNSLRAEDTAVYYCARSSGWYDGEFDPWGQGTLVTVSSKLSGSASAPKLEEGEFSEARVSYVLTQPPSASGTPGQRVTIS[about 80 residues not written out]FGGGTKVTVL
[1]
  Kd: 56 nM
[2]
  Fold-increase in MF above the negative control, 4B5 scFv: 12.6 fold
[3]
  mean fold increase in median fluorescence over the scFv control (MF): 4.36 fold
[4]
  mean fold increase in median fluorescence over the scFv control (MF): 3.7 fold
[5]
  Fold-increase in MF above the negative control, 4B5 scFv: 2.9 fold
[6]
  mean fold increase in median fluorescence over the scFv control (MF): 4.28 fold
[7]
  mean fold increase in median fluorescence over the scFv control (MF): 4.24 fold
[8]
  Fold-increase in MF above the negative control, 4B5 scFv: 2.43 fold
[9]
  mean fold increase in median fluorescence over the scFv control (MF): 3.68 fold
[10]
  mean fold increase in median fluorescence over the scFv control (MF): 4.58 fold
[11]
  mean fold increase in median fluorescence over the scFv control (MF): 4.29 fold
[12]
  mean fold increase in median fluorescence over the scFv control (MF): 2.77 fold
[13]
  mean fold increase in median fluorescence over the scFv control (MF): 2.22 fold
